The results in this text go back to publication PMC13541613.

The entries are a selection whose mix differs from that of the whole data set. At the low end of the ranking the order means little.

The experiment has as its target ZNF721 DBD1 (UniProt Q8TF20-2). Description: HT-SELEX. The conditions noted are these: 20 mM HEPES pH 7, 140 mM KCl, 5 mM NaCl, 1 mM K2HPO4, 2 mM MgSO4, 100 uM EGTA, ZnSO4, 0.1% Tween20; room temperature, 1 h; high values mean tight binding; double strand, one strand shown.
CACCCCCAAC returned a binding signal (relative 10-mer count) of 0.00514.
In turn, ACCCCCACAC came in with a binding signal (relative 10-mer count) of 0.00312.
As for CAGAGTACCC, the figure is 0.000505; as for GCCCCCCGCC, 0.00477.
As to AAAAGCTGCA, the binding signal (relative 10-mer count) amounted to 0.0533.
Sequence GCCCACCACC displayed a binding signal (relative 10-mer count) of 0.00688.
As to AAAAACAGCC, the binding signal (relative 10-mer count) came out at 0.000459.
Turning to GAAAAACAGC, the binding signal (relative 10-mer count) is 0.000413.
For the sequence AAACAGCAGC, the binding signal (relative 10-mer count) is 0.000321.
For the sequence CAGTGTCTCC, the binding signal (relative 10-mer count) amounted to 0.000642.
On to AAAAACAGAA, for which the binding signal (relative 10-mer count) stood at 0.000275.
AAACACTGTT displayed a binding signal (relative 10-mer count) of 0.000367.
CGAAAACAGC gave a binding signal (relative 10-mer count) of 0.000275.
In turn, AAACAGAGTA displayed a binding signal (relative 10-mer count) of 0.000183.
In turn, ATAAAAACAG had a binding signal (relative 10-mer count) of 0.000459.
As for AAACGAACAG, the figure is 0.000367; as for CCCCACCCGC, 0.00651; as for CAGTGTTGCC, 0.000321.
CGAAAAACAG had a binding signal (relative 10-mer count) of 0.00078.
As for GCCACCCCAC, the figure is 0.00472.
As for AAACGCTGTT, the figure is 0.000138.
Regarding GGGCGGGGGA, the binding signal (relative 10-mer count) was 0.00482.
For the sequence AACCCTGCTT, the binding signal (relative 10-mer count) is 0.000367.
As for AACAGCGTAT, the figure is 0.00055; as for AAAAGCAGGG, 0.000459.
ACGAAAACAG yielded a binding signal (relative 10-mer count) of 0.000642.
In turn, CAGGGGTGGG returned a binding signal (relative 10-mer count) of 0.00482.
CCACACACCC returned a binding signal (relative 10-mer count) of 0.00321.
AACAAGCAGT displayed a binding signal (relative 10-mer count) of 0.017.
Sequence AAACAGGATA registered a binding signal (relative 10-mer count) of 0.000275.
Regarding CCGCCCCGCC, the binding signal (relative 10-mer count) turned out to be 0.00592.
The sequence AAAACAGCGG displayed a binding signal (relative 10-mer count) of 0.000275.
In the case of CAGCGTTTCC it was 0.000229.
With AACAGCATCC, the binding signal (relative 10-mer count) was found to be 0.000871.
On to AACGCTGCTT, for which the binding signal (relative 10-mer count) is 0.000688.
AAAACAGCGC returned a binding signal (relative 10-mer count) of 0.000459.
In the case of AACAGCGTCT it was 0.000367; in that of CAGAAAACAG, 0.000459.
